The other results are listed elsewhere or left out. At the low end of the ranking the order means little.
The sequences below were run on T1, GST-NbGlk1(82-244) (assay: protein-binding microarray). Settings: NbGlk1 is a Golden2-like transcription factor of Nicotiana benthamiana; high values mean tight binding; most listed sequences are background and not binding sites; double strand, one strand shown.
T1 sequence: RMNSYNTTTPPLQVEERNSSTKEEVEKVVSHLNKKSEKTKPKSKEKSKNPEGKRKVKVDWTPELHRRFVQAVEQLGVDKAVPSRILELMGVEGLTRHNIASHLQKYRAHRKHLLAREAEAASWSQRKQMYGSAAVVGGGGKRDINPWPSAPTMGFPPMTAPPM
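Further: rank-based score ranging −0.5 to +0.5 with E above 0.45 taken as significant binding.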

Sequence | binding signal [E-score]
ATAAAGGA | 0.124
AGCCTAAC | -0.217
ACGGTTTA | -0.0063
AAGCACAG | -0.146
ACCAATTG | -0.0326
ACGGGCGG | -0.0389
AAAACGGT | -0.121
CAAGAACG | -0.0572
ACCGAAAC | -0.12
ACCAGCCA | -0.11
AGCGCTGG | -0.124
ATGCAAAT | 0.299
ATCGTACA | 0.149
ACTAAACC | -0.111
AAGGGATC | 0.139
AAGCGGGT | -0.0466
AAGAGCGC | -0.047
ATCTGATC | 0.329
AGTCCAAG | -0.024
AAGGCCGG | -0.17
ATAATGTG | 0.0796
AGGAAAAC | -0.0961

Sequence | binding signal [E-score]
ACAGGTTA | -0.0964
ATCTTGCG | 0.192
ATCGCCGC | 0.155
CACGGGGG | -0.316
ACAAGTAA | 0.0473
ATTTTAAG | 0.229
AACATGTC | -0.196
ATATCAAG | 0.298
ACATAGTC | -0.02
CACATGCG | -0.171
AATGCATA | 0.157
ACTCATCC | -0.0924
AGGACTGC | -0.181
AGCTTTCA | -0.13
CACTATGA | -0.0471
ACGAATGC | -0.197
ATCACTTC | 0.101
CAGCACTG | -0.126
AGGCAAAC | -0.0907
AAGCCTCC | -0.198
ACAACTGA | -0.00799
CAACAAAA | 0.185

Sequence | binding signal [E-score]
AAGAACGT | -0.0344
AGTTACGC | 0.0245
ACCTAGGA | -0.177
ATCACGCC | 0.135
AGACCGTG | -0.212
AAATGGCT | -0.298
ACGAGTAG | -0.142
ACCAAAGG | -0.146
ATACATGA | 0.137
ATCCTCGG | 0.194
ACAGGTGA | -0.14
AAAAGAAC | -0.0339
AAACCGCC | -0.236
AGTTATAC | 0.0694
ATAAGAGA | 0.0488
AGCATCTC | 0.0203
AACGTGAC | -0.25
AGAAAATA | 0.175
AATACTCT | -0.00729
ACTGGCAA | 0.0586
ACCTCAAG | -0.0775
AGCCTAGA | -0.105

Sequence | binding signal [E-score]
CAGCAGAG | -0.0542
CACACGGG | -0.116
AGAACGCT | -0.138
ATTCCGCC | 0.166
AATCGTGA | 0.312
ACAGTGCT | -0.139
ATAGACGA | -0.0219
ACCCCCGG | -0.322
ATTACTTA | 0.22
ATCGTTGA | 0.183
AATAAGTC | -0.00849
AGATGCAG | 0.0183
AAAAAGCC | -0.196
ACCTGGCC | -0.186
AATGCCAG | -0.00403
AGGCGTCA | -0.235
ACTGCGCC | 0.0066
CAAGGGTG | -0.235
AGGGTCCG | -0.23
ACGTCTCG | -0.0648
